From ChEMBL document CHEMBL4888484, “Replenishing the malaria drug discovery pipeline: Screening and hit evaluation of the MMV Hit Generation Library 1 (HGL1) against asexual blood stage Plasmodium falciparum ,using a nano luciferase reporter read-out” (2022) come the findings set out here.

The campaign covered roughly 150,000 compounds. About 540 (0.36%) showed an effect of 50% or more. The list shows a part of the results.

One may read the % Inhibition as the drop in the measured response relative to a control, in per cent.

For this assay, the system named is Plasmodium falciparum. Description: Primary screen in NF54 nanoGlo assay, in single point, at 2uM, 72h; a lower Z score goes with more inhibition. It is filed as functional, Erythrocyte. The conditions noted are these: timepoint 72 hour.
For the compound `Cc1c[nH]c(CN(C)CCC(=O)Nc2ccsc2C(=O)O)n1`, the “% Inhibition” value was -12% and the Z score worked out at 1.53.
`CC(=O)Nc1ccc(N2C(=O)[C@@H]3C(Cc4c[nH]c5ccccc45)NC4(C(=O)Nc5c(C)cc(Cl)cc54)[C@@H]3C2=O)cc1` (some centres undefined): the “% Inhibition” value is reported as -2% and the Z score is recorded as 0.28.
Taken in the same sequence, the figures for `CN(C)c1ccc(NC(=O)CCc2ccsc2)cn1` were -8% and 1.18.
As to `CC(=O)N[C@H](C)C(=O)N[C@H](CCC(=O)OCc1ccccc1)C(=O)OCc1ccccc1`, the “% Inhibition” value was -5% and the Z score turned out to be 0.58.
As to `Cc1ccc([C@H]2c3cc(OCc4nc(C(=O)N5CCCC5)co4)ccc3CCN2C(=O)C2CCCC2)cc1`, the “% Inhibition” value is -10% and the Z score worked out at 1.55.
As for `Cc1cc(N2C[C@H](CN)C3(CCOCC3)C2)c2ccc(F)c(F)c2n1`, the “% Inhibition” value is -2% and the Z score was found to be 0.31.
On to `O=C(Nc1ccc2ccccc2c1)c1cc2c(s1)CCC2`, for which the “% Inhibition” value worked out at 3% and the Z score is -0.34.
Consider `CC(=O)Nc1cccc(NC(=O)C[C@@H]2NC(=O)N(Cc3ccccc3Cl)C2=O)c1`, for which the “% Inhibition” value worked out at 11% and the Z score is -1.47.
Regarding `Fc1ccc(CCn2nnnc2N2CCCOCC2)cc1`, the “% Inhibition” value turned out to be 3% and the Z score was -0.54.
With `CC[C@H]1C(=O)N(C)CCN1c1ccc(-c2nc(C(C)C)no2)cn1`, the “% Inhibition” value was -10% and the Z score was found to be 1.21.
For the compound `C[C@@H](c1nccs1)N1C(=O)c2cccc(N3CCN(CCCc4ccccc4)CC3)c2C1=O`, the “% Inhibition” value was -4% and the Z score is recorded as 0.62.
As for `CCn1cc(S(=O)(=O)N2CC(N(CCOC)CCOC)C2)cn1`, the “% Inhibition” value is listed as -2% and the Z score turned out to be 0.23.
`CCC(NC(=O)N1CCCC(c2nn(-c3ccccc3)cc2C(N)=O)C1)C1CC1` (centres undefined): the “% Inhibition” value is recorded as -7% and the Z score was determined as 1.28.
`Cc1ncc2c(c1-c1noc(-c3c[nH]c(-c4ccccc4)n3)n1)CCNC2`: the “% Inhibition” value is listed as -1% and the Z score was 0.18.
`Cn1nc(C2CC2)cc1NC(=O)NCCN1CCNC1=O`: the “% Inhibition” value was -18% and the Z score is 2.86.
The corresponding values for `Cc1csc(CNC(=O)Nc2cccc3c2OC(C)(C)C3)n1` are 1% and -0.12.
The corresponding values for `Cc1ccc2[nH]c(-c3ccccc3NC(=O)c3cccs3)nc2c1` are -3% and 0.64.
With `CNc1nc(C(=O)N2CCCN(CC3CC3)[C@H](C(C)C)C2)cs1`, the “% Inhibition” value is -8% and the Z score is on record as 1.47.
In the case of `O=C(CN1CCN(Cc2nc(-c3ccccc3)co2)CC1)NCC1CCC1`, the “% Inhibition” value was 4% and the Z score is reported as -0.52.
For `Cn1cc([C@H](CO)NCC23CCC(CC2)C3)cn1`, the “% Inhibition” value is listed as -5% and the Z score came to 0.83.
Taken in the same sequence, the figures for `CC(OC1CCCCC1)C(=O)NOC1CCCCO1` (centres undefined) were -2% and 0.2.
On to `Cc1cc(C(=O)NCC2CCN(c3cnccn3)CC2)c(C)o1`, for which the “% Inhibition” value is listed as -7% and the Z score stood at 1.1.
For `O=C(N[C@H]1CCc2nccn2C1)c1cc2c(s1)CCC2`, the “% Inhibition” value is given as -3% and the Z score is recorded as 0.49.
The corresponding values for `CN(Cc1ccccc1)S(=O)(=O)c1ccc(-c2ccc(=O)[nH]n2)o1` are 2% and -0.24.
As for `CN1CC[C@@H](C(=O)NCCc2cc(C(F)(F)F)ccn2)S1(=O)=O`, the “% Inhibition” value is -7% and the Z score came to 1.02.
The corresponding values for `O=C(Nc1ccccc1)C1CCN(Cc2cccc3nccn23)CC1` are -6% and 0.63.
On to `Cc1cccc(CNC[C@H]2Cn3c(-c4ccc(Cl)cc4)cnc3CO2)n1`, for which the “% Inhibition” value is reported as 8% and the Z score is reported as -0.92.
Take `CC(C)n1c([C@H]2CCN(C(=O)Cc3ccccc3F)C2)nc2ccncc21`: the “% Inhibition” value is on record as -9% and the Z score is given as 0.86.
`Cc1n[nH]c([C@@H]2CCN(C(=O)C3CCOCC3)CCN2Cc2cccnc2)n1`: the “% Inhibition” value is recorded as -9% and the Z score came out at 1.32.
The corresponding values for `C[C@@H]1[C@@H](c2cccc(Cl)c2)OCCN1C(=O)NC1CC2CCCCN2C1=O` (some centres undefined) are -3% and 0.45.
With `O=C(Nc1cc(S(=O)(=O)N2CCCC2)ccc1O)c1n[nH]c2ccccc12`, the “% Inhibition” value is -18% and the Z score is on record as 2.81.
Consider `Cc1nsc(NCCCn2ccnc2C)c1C#N`, for which the “% Inhibition” value was -4% and the Z score was found to be 0.48.
As for `Cc1noc([C@@H]2CN(C(=O)C3CCC3)CCCN2C(=O)c2ccccc2)n1`, the “% Inhibition” value is -7% and the Z score is 1.37.
As for `COc1ccc(C2CC(=O)N(c3ccc4c(c3)OCCO4)C(=O)C2)cc1`, the “% Inhibition” value was -11% and the Z score turned out to be 1.95.
For `Cc1ccc2[nH]cc([C@H](c3ccccc3)c3ccc(C)s3)c2c1`, the “% Inhibition” value was -7% and the Z score is 1.06.
Regarding `COc1ccc(CN2C(=O)N[C@@H](CC(=O)N3CCOCC3)C2=O)cc1`, the “% Inhibition” value is -6% and the Z score was determined as 0.82.
As to `COc1ccc(OC)c(NC(=O)CN2C(=O)COc3ccc(C(=O)N4CCCC4)cc32)c1`, the “% Inhibition” value is recorded as 0% and the Z score was -0.05.
Regarding `CCN(CC)C(=O)c1cnc2snc(C)c2c1N1CCC(C(=O)Nc2c(C)cc(C)cc2C)CC1`, the “% Inhibition” value came out at 54% and the Z score is reported as -10.3.
In the case of `CCOC(=O)Cc1csc(NC(=O)c2cc(-c3csc(C)n3)c[nH]2)n1`, the “% Inhibition” value is reported as -5% and the Z score was determined as 0.86.
Regarding `COc1c(F)c(F)c(CN2CCOC2=O)c(F)c1F`, the “% Inhibition” value is on record as -14% and the Z score was found to be 1.77.
Regarding `COc1ccccc1NC(=O)COc1ccc(-c2ccccc2)cc1CN1CCC(c2nncn2C)CC1`, the “% Inhibition” value is given as -12% and the Z score was found to be 1.31.
Consider `C=C(C)C[C@H](C)C(=O)Nc1cnn(C)c1Cl`, for which the “% Inhibition” value is recorded as -17% and the Z score is reported as 2.14.
Take `O=C(Cn1cncn1)N1CCC(c2nnc(C(F)(F)F)o2)CC1`: the “% Inhibition” value is recorded as -10% and the Z score is recorded as 1.18.
Taken in the same sequence, the figures for `Cc1cccc(C(=O)N2CCC[C@H]2C(=O)Nc2ccc(Cl)cc2Cl)n1` were 23% and -2.92.
With `COCCN(CCNC(=O)N1CCCCCC1)C1CC1`, the “% Inhibition” value is recorded as -6% and the Z score was 0.54.
As to `CCCC(=O)Nc1ccc(C(F)(F)F)cc1Cl`, the “% Inhibition” value is given as 0% and the Z score was 0.06.
With `Cc1nnc(-c2ccccc2NC(=O)C(=O)NC2CCCCC2)o1`, the “% Inhibition” value is -4% and the Z score amounted to 0.51.
Taken in the same sequence, the figures for `Cc1nonc1[C@@H]1CCCN1C(=O)CCc1c(C)nn(C)c1C` were 3% and -0.46.
Taken in the same sequence, the figures for `C=CCN(Cc1nc(-c2cc(OC)c3c(c2)OCO3)oc1C)[C@H]1CCS(=O)(=O)C1` were 0% and -0.05.
Take `CC(C)[C@H](NCc1ccc(C#N)cc1)C1(CO)CCC1`: the “% Inhibition” value is -5% and the Z score came out at 1.04.
As for `Cc1cccc(CNC[C@H](NC(=O)OC(C)(C)C)C(C)C)c1`, the “% Inhibition” value worked out at 10% and the Z score is on record as -1.5.
Taken in the same sequence, the figures for `O=C1COc2ncc(C(=O)N3CC[C@H](c4nc(C5CC5)no4)C3)cc2N1` were 2% and -0.34.
